According to the supplement of paper PMC3334620:
The full ranking holds about 33,000 sequences; the median of “E-score (-0.5 to 0.5)” is about -0.012, and the highest 2% start at about 0.27. This is one part of the list.

Biological target: T1, Vhr1 (UniProt P40522)
T1 sequence: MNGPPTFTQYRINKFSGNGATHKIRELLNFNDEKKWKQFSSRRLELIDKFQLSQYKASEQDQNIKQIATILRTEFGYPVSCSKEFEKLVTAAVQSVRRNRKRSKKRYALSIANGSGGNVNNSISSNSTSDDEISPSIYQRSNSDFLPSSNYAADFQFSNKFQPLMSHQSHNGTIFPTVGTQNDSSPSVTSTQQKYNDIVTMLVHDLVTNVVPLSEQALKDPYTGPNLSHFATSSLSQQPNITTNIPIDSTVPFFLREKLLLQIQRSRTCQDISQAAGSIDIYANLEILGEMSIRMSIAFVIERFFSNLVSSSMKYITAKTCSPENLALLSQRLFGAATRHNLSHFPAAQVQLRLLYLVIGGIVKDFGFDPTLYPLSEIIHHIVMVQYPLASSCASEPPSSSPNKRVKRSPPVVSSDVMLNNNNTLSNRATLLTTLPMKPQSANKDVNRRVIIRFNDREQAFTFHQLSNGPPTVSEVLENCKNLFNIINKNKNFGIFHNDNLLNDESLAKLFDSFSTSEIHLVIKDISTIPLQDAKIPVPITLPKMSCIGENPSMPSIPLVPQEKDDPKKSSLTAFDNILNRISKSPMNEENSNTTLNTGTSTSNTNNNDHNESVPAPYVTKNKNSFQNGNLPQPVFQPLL
Test: PBM E-score (8-mer binding enrichment) (E-score (-0.5 to 0.5)); higher = stronger / more preferred TF binding; most listed sequences are background and not binding sites
Conditions: protein concentration: 200 nM; construct: GST-full length
Summary of the method: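 Each ungapped eight-base word and its reverse complement, pooled, received an E-score from the Universal PBM Analysis Suite. Underlying scans, normalised with masliner, recorded fluorescent anti-GST bound to GST-tagged yeast transcription factors. These were applied at about 100-200 nM to universal all-10-mer Agilent arrays double-stranded by primer extension.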

Point of comparison: GTATGGAA, “PBM E-score” value -0.0887. Against it:
- GGGTCTAA — higher, 0.0208
- GTCGGGTA — higher, 0.12
- CTTAGATA — higher, -0.0809
- ATGGCCAT — lower, -0.153
- AATCGCCT — higher, 0.248
- CTGTTCGC — higher, 0.0266
- GTTACTAA — higher, 0.0333
- GCCCACCC — higher, 0.284
- CTGGGGTA — lower, -0.157
- ATGCTAAT — higher, -0.0227
- CATTAAAA — higher, 0.0893
- CGTGATGA — higher, 0.0242
- GAGCTTAC — lower, -0.0921
- GGAGGCCC — lower, -0.283
- CGCCGGGC — higher, 0.213
- AAGTCGCT — higher, 0.0823
- CGGCTCAA — higher, 0.0103
- TCACCTCA — higher, 0.0985
- TATTGTAA — higher, -0.0846
- GGATTCAC — higher, 0.0757
- ATTGGCTG — higher, -0.0538
- AGGCCTCC — higher, -0.0772
- GCTAACCA — higher, 0.0612
- AGCCCTAG — lower, -0.096
- CTGACCAC — higher, -0.0676
- GCCAAGAC — higher, -0.0123
- ATTCGCCA — higher, 0.156
- CTTCGAGC — lower, -0.153
- AAAATCTC — higher, -0.043
- ATCTATAA — lower, -0.137
- AAAGCATA — higher, -0.0696
- GGGCTCCA — lower, -0.158
- CATATTCC — lower, -0.171
- CAGGTACA — higher, 0.0667
- CCACCCAG — higher, 0.115
- CCGCCAAA — higher, 0.0122
- AACTACAC — higher, 0.0739
- TACACAAA — higher, 0.0773
- GCTCTTAA — lower, -0.0965
- GGGGTAGA — higher, 0.0361
- CCTGTGAA — lower, -0.0995
- GATAGTCA — higher, 0.357
- AATAGCTA — lower, -0.116
- GCGGATAA — higher, 0.169
- AACTCAGT — higher, 0.00455
- GACCAAAA — higher, 0.0585
- CCCGGGGC — higher, -0.0124
- ATGTACAC — higher, 0.113
- GAACCATC — higher, 0.212
- CACGCGGA — higher, 0.215
- CCCTGACG — higher, -0.0114
- ACGTTCGA — lower, -0.176
- AAAATGTA — higher, 0.00485
- ATGACCAG — higher, 0.0367
- AGATGAAC — higher, -0.0339
- CTTGATTA — higher, 0.0605
- CTATATCA — higher, 0.064
- GGTGGACA — higher, -0.0244
- AAATTCGG — higher, -0.0086
- ATAGAGTG — higher, 0.0554
- GCTAGAGA — lower, -0.235
- AAAATAGG — higher, -0.0375
- CCGGCGCC — higher, 0.112
- GAGATGAA — higher, 0.00829
- GAAAGACC — lower, -0.127
- CGACTCTC — higher, 0.278
- ACGGTTCG — higher, -0.0569
- TAGGGAAA — higher, -0.0504
- CTGTGTAA — higher, 0.134
- AATCATAT — higher, 0.296
- CAGGATAC — lower, -0.0962
- CTTTCATA — higher, -0.00958
- AAGCCTCC — lower, -0.172
- GTGACAAC — higher, 0.119
- CCCAGGGG — higher, 0.00897
- ACAAGACT — higher, 0.0436
- GGTAGCCA — higher, 0.0707
- AGAGCAGG — higher, 0.0243
- TATCGAGA — higher, 0.0713
- CCCGCTCC — lower, -0.19
- CAGGCACG — higher, 0.184
- AGATTGGC — higher, -0.0581
- AAGGCCGC — lower, -0.175
- CGGGGTTA — higher, -0.047
- GGTTGCGA — higher, 0.167
- AAGTTGCG — lower, -0.188
- AATGTTGC — higher, -0.0613
- ATAGCAAT — higher, 0.0575
- CGAAGGCC — lower, -0.278
- AGAGCGGG — higher, 0.0355
- AGGGCCCA — lower, -0.175
- ACCCATCA — higher, 0.261
- AACTGGCT — lower, -0.204
- GTCCCCTA — lower, -0.213
- CATACGAA — higher, 0.182
- CTTCCCGC — higher, 0.0761
- AGTGAACT — higher, -0.0748
- AATAAATC — lower, -0.116
- CCTAATCC — lower, -0.116
- AAAAGGCG — higher, -0.0625
- GATAAGGC — higher, -0.0808
- GAGTTGAA — lower, -0.122
- CGCACGCG — higher, 0.00561
- GAATGGGC — higher, 0.068
- ACTAAAGG — lower, -0.136
- ATTCACAA — higher, 0.14
- CCCCTTCC — lower, -0.235
- ATCGGTGG — higher, 0.00571
- ATCCGATG — higher, 0.221
- CAGAGCAC — higher, 0.143
- GGGGGCAC — lower, -0.127
- GATCTGGC — lower, -0.194
- CAAAAGAC — lower, -0.162
- ACTATATG — higher, 0.0345
- TTAGTGAA — higher, 0.102
- AGAATCGG — higher, -0.0586
- CAAGGCCC — lower, -0.18
- GAGGATGC — higher, -0.0556
- GATGCCCA — lower, -0.115
- TACCAGGA — higher, 0.0535
- AACCTCAG — lower, -0.103
- AAGCAAGG — lower, -0.11
- ATGTAGCA — higher, 0.00252
- TAAAGTCA — higher, 0.26
- GGAAGCAC — lower, -0.0937
- AGGGGAAT — higher, 0.0507
- CGACTCAC — higher, 0.448
- CATATCCC — higher, 0.14
- CTAGAGAA — lower, -0.267
- CTTAGAGA — lower, -0.118
- CGCAAAAG — lower, -0.227
- TATTGCAA — higher, 0.0217
- CGTACCTA — higher, 0.0178
- CTTCATTC — higher, -0.0777
- ATATCTGG — higher, -0.0831
- ACTACGAC — higher, 0.217
- CTCCGCAG — higher, 0.0786
- ATACGTGG — higher, -0.0166
- GGTTTGAC — lower, -0.145
- CGTAGAAG — lower, -0.164
- TAAATCCA — higher, -0.0361
- CACCCTAC — higher, 0.0405
- CTGGCGCC — higher, 0.0245
- CGTGATCC — higher, -0.0765
- CTGAGCTC — lower, -0.16
- CGGGGAGA — higher, -0.016
- CCCTAAAG — lower, -0.255
- GCATATAA — higher, 0.0992
- CTCGCTCA — higher, 0.0513
- CTGCCTTA — lower, -0.167
- ATCGGATA — higher, 0.166
- CACATTGC — higher, 0.166
- CTTTACCC — higher, -0.0776
- AGGGTGAA — higher, -0.0322
- CATATTCA — higher, 0.0975
- CGGCATGA — higher, 0.175
- CACTGATC — higher, 0.0134
- CGCCCTTA — higher, -0.0736
- CCTGAAAC — higher, -0.0231
- CTCTAGGC — higher, -0.0392
- CCGGACGG — higher, -0.00881
- GGAGACCA — higher, 0.0819
- CTGCGTGC — lower, -0.103
- CCCTGCTC — higher, 0.0218
- AAACAACT — higher, 0.00486
- CGGTCAGC — higher, 0.152
- AAATTAGC — lower, -0.0946
- CACCTCCC — higher, 0.0532
- GTATATCA — higher, 0.102
- GCCGAGCA — lower, -0.178
- AAAGAGGA — lower, -0.129
- AGAAGGGA — lower, -0.271
- GGAGGTTA — lower, -0.166
- ACGGCCGC — higher, -0.0188
- GGAAGGGA — lower, -0.14
- CGAGTACC — higher, 0.137
- AGGCGCAC — higher, 0.0383
- CACTTCAA — lower, -0.161
- AATGATAC — higher, 0.235
- ATACTGTA — higher, 0.224
- CATTTGCC — lower, -0.281
- GACGTCTA — lower, -0.138
- ACAACCGG — higher, -0.024
- TTCTGAAA — lower, -0.116
- GATGGTAA — higher, -0.0006
- CGACGTCG — higher, 0.241
- GACAGAGA — higher, -0.0231
- GATTATCA — higher, 0.195
- AGTTGGCG — higher, 0.0558
- CGAAGTCG — higher, 0.155
- ACCATAGG — higher, 0.0531
- GAGTTAGA — higher, -0.0441
- AATAAAAA — higher, -0.0688
- CGCGTTTA — lower, -0.245
- AAGGAGAC — higher, -0.0537
- AGGTAGCA — lower, -0.205
- GGTAATAA — higher, 0.0807
- AGCAATAT — higher, -0.00859
- AGAGTCAA — higher, 0.112
- CTAATTAC — higher, -0.045
- CGAAGCCG — lower, -0.109
- ACATGCTA — lower, -0.107
- CATGGGAA — higher, 0.0669
- ATGTACGG — lower, -0.094
- CTTGTGGA — higher, 0.046
- AGTCGTAT — higher, 0.193
- CGACCCTA — higher, 0.125
- CTTAAATA — lower, -0.219
- GGTGACCA — higher, -0.0328
- GGCGGACA — higher, 0.0669
- ACTCCCCG — higher, 0.199
- AATTGCCG — lower, -0.0903
- GCCAGTTA — lower, -0.0947
- ACCCATTA — higher, 0.188
- GCGTATCC — higher, -0.0183
- CAAGTGTG — higher, -0.0159
- AAGGGGCT — lower, -0.144
- GTGCTTGA — lower, -0.138
